{
  "source": "PubChem BioAssay AID485313",
  "about": "(National Center for Advancing Translational Sciences (NCATS), 2010)",
  "note": "Screen size: about 320,000 compounds; about 7,600 (2.4%) were called active. The inconclusive results got no clear call from the source; some entries with a clear call stand among them for comparison. The call rests on the fitted dose curve; in most records, active means well fitted activation curve with a large enough effect; inconclusive means small, poorly fitted or top-dose-only effect; inactive means no such curve, though single readings can be large or run the other way. Potencies of inconclusive entries are left out as doubtful fits. Potency means the concentration at half of the fitted maximal effect; tags describe the fitted curve by direction and shape.",
  "data": [
    {"test": "qHTS Assay for NPC1 Promoter Activators; further: nearly all actives have a fitted effect of over 60% in size;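 on activation: reporter is driven by a mutant NPC1 promoter; % of control where 0% means no effect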", "settings": "Huh7 NPC1 promoter luciferase reporter, 24 h; series mostly up to 9.22 µM", "method_in_brief": "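Stably transfected Huh7 (NPC1 promoter→luciferase), 1500 cells/well in Opti-MEM + 10% FBS, 2 h settle, then compound 24 h at 37 °C. Luminescence after 10 min with Amplite reagent.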", "values": [
      {"smiles": "Cc1ccc(OCc2cc(C(=O)N(C)Cc3cnn(-c4ccccc4C)c3)no2)cn1", "Potency": "inactive"},
      {"smiles": "Cc1ccnc(Nc2nc(-c3ccc(O)cc3O)cs2)c1", "Potency": "inconclusive [activator, single point]"},
      {"smiles": "COc1ccc(NC(=S)Nc2cc(C)ccn2)c(OC)c1", "Potency": "inconclusive [activator, single point]"},
      {"smiles": "Cc1ccc(/C=N/n2c(C)nc3ccccc3c2=O)s1", "Potency": "inconclusive [activator, single point]"},
      {"smiles": "CC1CCC(NC(=O)CNC(=O)c2cccs2)CC1", "note": "(stereo not given)", "Potency": "inconclusive [activator, partial curve]"},
      {"smiles": "N#CC(C#N)=Cc1ccccc1OCc1ccccc1", "Potency": "inactive"},
      {"smiles": "O=C(/C=C/c1ccccc1Cl)Nc1cccc(S(=O)(=O)NC2=NCCCCC2)c1", "Potency": "inconclusive [activator, single point]"},
      {"smiles": "Cc1ccc2nc(NC(=O)COC(=O)CSc3nc(C)cc(C)n3)sc2c1", "Potency": "inconclusive [activator, single point]"},
      {"smiles": "O=C(Nc1ccc(C(=O)N2CCCCC2)cc1)C1=CSCCO1", "Potency": "active: 2.82 µM"},
      {"smiles": "Oc1ccc(/C=N/NC(=S)NC2CC3CCC2C3)cc1", "note": "(stereo not given)", "Potency": "active: 3.16 µM"},
      {"smiles": "Oc1ccc(-c2nc3ccccc3s2)c(O)c1", "Potency": "active: 2.82 µM"},
      {"smiles": "c1ccc(-n2ncc3c(NCc4ccco4)ncnc32)cc1", "Potency": "inconclusive [activator, partial curve]"},
      {"smiles": "O=[N+]([O-])c1ccccc1/C=N/N1CCN(c2ccccn2)CC1", "Potency": "inconclusive [activator, single point]"},
      {"smiles": "CCCC(=O)OCC(=O)Nc1ccc(N=Nc2ccccc2)cc1", "Potency": "active: 2.24 µM"},
      {"smiles": "Cc1ccc(C(=O)N[C@@H](C)CN2C3=NC[C@H](C)N3C[C@H]2Cc2ccc(O)cc2)cc1Br", "Potency": "inactive"},
      {"smiles": "COc1cc(/C=N/NS(=O)(=O)c2ccc(C)cc2)ccc1OCc1cccc(C(=O)O)c1", "Potency": "active: 2 µM"},
      {"smiles": "COC(=O)C1=C(C)N(Cc2ccccc2)C(=NCCCCO)N[C@H]1CCc1ccccc1", "Potency": "inactive"},
      {"smiles": "O=C(Nc1ccc(Br)cc1F)c1sccc1-n1cccc1", "Potency": "inconclusive [activator, partial curve]"},
      {"smiles": "CCC(=O)Nc1ccc2nc(C3CC3)n(Cc3ccc(C(C)(C)C)cc3)c(=O)c2c1", "Potency": "active: 0.316 µM"},
      {"smiles": "CC(=O)Nc1ccc(N=NC2C(=O)N(C(N)=S)N=C2C)cc1", "note": "(stereo not given)", "Potency": "inconclusive [activator, single point]"},
      {"smiles": "Fc1ccc(CSc2nnc(-c3ccco3)o2)cc1", "Potency": "inconclusive [activator, partial curve]"},
      {"smiles": "O=[N+]([O-])c1ccc(S(=O)(=O)Nc2nc(-c3ccccc3)cs2)cc1", "Potency": "inactive"},
      {"smiles": "CC(C)(C)SCCNC(=O)c1ccccc1", "Potency": "inconclusive [activator, partial curve]"},
      {"smiles": "COc1cccc(CC(CC(=O)O)C(=O)Nc2cc(C)ccc2C)c1", "note": "(stereo not given)", "Potency": "inactive"},
      {"smiles": "Cc1ccsc1/C=N/NC(=O)C(=O)NCC(C)C", "Potency": "inconclusive [activator, single point]"},
      {"smiles": "CC1CC(C)CN(CC(=O)Nc2ccc3c(c2)OCCO3)C1", "note": "(stereo not given)", "Potency": "inconclusive [activator, single point]"},
      {"smiles": "CCC1(c2ccc(Cl)cc2)NC(=O)N(CC(=O)NC2CCCCCC2)C1=O", "note": "(stereo not given)", "Potency": "inactive"},
      {"smiles": "O=C(NC(=S)Nc1ccc(N2CCOCC2)cc1)c1ccco1", "Potency": "active: 2.82 µM"},
      {"smiles": "O=C(NNC(=O)c1ccc(-c2ccccc2)cc1)c1ccccc1", "Potency": "inconclusive [activator, single point]"},
      {"smiles": "Cc1cc(N2CCN(C)CC2)ccc1NC(=O)c1ccc(-c2ccc(Cl)cc2)o1", "Potency": "inactive"},
      {"smiles": "CC(=O)Nc1ccc(N=Nc2ccc(O)cc2)cc1", "Potency": "inconclusive [activator, single point]"},
      {"smiles": "CCc1nnc(NC(=O)CSc2nc(N)c(NC(=O)c3ccc(OC)cc3)c(=O)[nH]2)s1", "Potency": "inactive"},
      {"smiles": "C/C(=N/NS(=O)(=O)c1ccc(C)cc1)c1c(O)c2ccccc2oc1=O", "Potency": "inactive"},
      {"smiles": "Cc1[nH]n(-c2ccccc2)c(=O)c1/C=N\\NC(=O)C1COc2ccccc2O1", "note": "(stereo not given)", "Potency": "inconclusive [activator, partial curve]"},
      {"smiles": "CC(C)c1nnc(NC(=O)c2cccc(NC(=O)C(F)(F)F)c2)s1", "Potency": "active: 3.55 µM"},
      {"smiles": "c1ccc(-c2cc(-c3ccccc3)on2)cc1", "Potency": "active: 1.41 µM"},
      {"smiles": "NNC(=O)c1ccc(COc2ccc3c(c2)CCC3)cc1", "Potency": "inconclusive [activator, partial curve]"},
      {"smiles": "CC(=O)Nc1ccc(N/C=C/C(=O)c2ccco2)cc1", "Potency": "active: 3.16 µM"},
      {"smiles": "Cc1nc(CSc2ccc(Br)cc2)cs1", "Potency": "inactive"},
      {"smiles": "c1ccc2c(Nc3nnc(-c4ccncc4)s3)cccc2c1", "Potency": "inconclusive [activator, single point]"},
      {"smiles": "COc1ccc(C)cc1NC(=O)CCc1c(C)nn(-c2ccc(N3CCCCC3)nn2)c1C", "Potency": "inconclusive [activator, single point]"},
      {"smiles": "CC1CCc2sc(C(=O)NNC(=S)NC3CC3)cc2C1", "note": "(stereo not given)", "Potency": "inconclusive [activator, partial curve]"},
      {"smiles": "CC(=O)c1sc(NC(=O)CCS(=O)(=O)c2ccc(C)cc2)nc1C", "Potency": "inactive"},
      {"smiles": "S=c1nc(COc2ccccc2)[nH]c2ccccc12", "Potency": "inconclusive [activator, partial curve]"},
      {"smiles": "Cn1cnnc1SCC(=O)Nc1ccc2nc(SCc3ccccc3)sc2c1", "Potency": "active: 3.55 µM"},
      {"smiles": "O=C(Nc1cccnc1Cl)c1cc2c(s1)-c1ccccc1OC2", "Potency": "inconclusive [activator, single point]"},
      {"smiles": "C=CCOc1ccc(-c2n[nH]c(=S)o2)cc1", "Potency": "inactive"},
      {"smiles": "CCc1ccc(C(=O)NC2CCCCC2)s1", "Potency": "active: 2.51 µM"},
      {"smiles": "Cc1ccc(C(=O)NNc2ncnc3ccccc23)cc1", "Potency": "active: 3.16 µM"},
      {"smiles": "NC(=O)c1sc2nc3c(cc2c1N)CCCCCC3", "Potency": "active: 2.51 µM"},
      {"smiles": "Cc1ccc(NC(=O)Nc2cc(C)on2)cc1", "Potency": "inconclusive [activator, partial curve]"},
      {"smiles": "CCOC(=O)c1oc2nc3c(cc2c1N)COC(C)(C)C3", "Potency": "inactive"},
      {"smiles": "COc1ccc(NC(=S)Nc2cc(-c3ccccc3)[nH]n2)cc1Cl", "Potency": "inactive"},
      {"smiles": "CCOc1ccccc1-c1nc(-c2cccc(Br)c2)no1", "Potency": "inconclusive [activator, single point]"},
      {"smiles": "CN=C1S/C(=C\\c2ccc(SC)cc2)C(=O)N1C", "Potency": "inconclusive [activator, partial curve]"},
      {"smiles": "COc1ccc(NC(=O)Nc2ccc3nonc3c2)cc1", "Potency": "inconclusive [activator, partial curve]"},
      {"smiles": "CCCC(=O)Nc1ccc(-c2csc(N/N=C\\c3ccncc3)n2)cc1", "Potency": "inconclusive [activator, partial curve]"},
      {"smiles": "CN(C)/C=N/c1ncnc2c1cnn2-c1ccc(C(F)(F)F)cn1", "Potency": "active: 2.51 µM"},
      {"smiles": "COc1ccc(NC(=O)Nc2ccc(Br)c(C)c2)cc1", "Potency": "inconclusive [activator, single point]"},
      {"smiles": "CCCCc1ccc(-c2nc(-c3ccncc3)no2)cc1", "Potency": "active: 0.447 µM"},
      {"smiles": "Cc1occc1C(=O)N=Nc1c(O)n(C)c2ccccc12", "Potency": "inconclusive [activator, single point]"},
      {"smiles": "Cc1ccc(-c2noc(CN3CCCCC3)n2)cc1", "Potency": "inconclusive [activator, partial curve]"},
      {"smiles": "Cc1ccc(NC(=O)/C(C#N)=C/c2cccs2)c(C)c1", "Potency": "active: 2 µM"},
      {"smiles": "CC1(C)CC(=O)c2c(O)cc(OCc3ccc(Br)cc3)cc2O1", "Potency": "active: 2.51 µM"},
      {"smiles": "COC(=O)c1sccc1-c1ccc(C(=O)Nc2cccc(Cl)c2)o1", "Potency": "inconclusive [activator, single point]"},
      {"smiles": "CCCC[C@]12Cc3cc(OC)c(OC)cc3C(O1)C1=C(O2)C(=O)c2ccccc2C1=O", "activation": "inactive: 3.15% [at 1.84 µM]"},
      {"smiles": "O=[N+]([O-])c1ccc(O)c(C=Nc2ccc3nc(-c4ccccc4)[nH]c3c2)c1", "Potency": "inconclusive [activator, single point]"},
      {"smiles": "O=C(Nc1ccccc1)Nc1cccc(Cl)c1", "Potency": "inconclusive [activator, partial curve]"},
      {"smiles": "CC1CCc2sc(NC(=S)NC(=O)c3ccccc3)c(C#N)c2C1", "note": "(stereo not given)", "Potency": "inconclusive [activator, single point]"},
      {"smiles": "COc1cc(/C=C2\\OC(=O)c3c(OC)cccc32)ccc1O", "Potency": "inconclusive [activator, partial curve]"},
      {"smiles": "Cc1occc1C(=O)Nc1ccc2c(c1)OCO2", "Potency": "active: 3.55 µM"},
      {"smiles": "Cc1ccc(Cc2nc(-c3ccccn3)no2)cc1", "Potency": "active: 1.78 µM"},
      {"smiles": "Cc1cc(C)n(-c2c(C)[nH]c3ccccc23)n1", "Potency": "inactive"},
      {"smiles": "CC(C)CC(NC(=O)C1CCC(C)CC1)C(=O)N1CCN(c2ccccn2)CC1", "note": "(stereo not given)", "Potency": "inactive"},
      {"smiles": "c1ccc(-c2csc(-c3cccnc3)n2)cc1", "Potency": "inactive"},
      {"smiles": "CCOC(=O)c1ccc(N=c2scc(C)n2CC)cc1", "Potency": "inconclusive [activator, partial curve]"},
      {"smiles": "COc1ccccc1NC(=O)/C=C\\c1ccco1", "Potency": "inconclusive [activator, single point]"},
      {"smiles": "CCOC(=O)c1sc(Nc2nc3c(OC)cccc3s2)nc1C", "Potency": "inconclusive [activator, single point]"},
      {"smiles": "CCN(CC)c1ccc(C(=O)Nc2ccccc2)cc1[N+](=O)[O-]", "Potency": "inconclusive [activator, single point]"},
      {"smiles": "O=C(Nc1nccs1)c1ccccn1", "Potency": "inconclusive [activator, partial curve]"}
    ]}
  ]
}
